Measurements published in PMC12820563, “FoxP3 forms a head-to-head dimer in vivo and stabilizes its multimerization on adjacent microsatellites”.
The other results are listed elsewhere or left out.

Target: T1, MBP-FoxP1dN (Mus musculus, UniProt P58462 326-579)
T1 sequence: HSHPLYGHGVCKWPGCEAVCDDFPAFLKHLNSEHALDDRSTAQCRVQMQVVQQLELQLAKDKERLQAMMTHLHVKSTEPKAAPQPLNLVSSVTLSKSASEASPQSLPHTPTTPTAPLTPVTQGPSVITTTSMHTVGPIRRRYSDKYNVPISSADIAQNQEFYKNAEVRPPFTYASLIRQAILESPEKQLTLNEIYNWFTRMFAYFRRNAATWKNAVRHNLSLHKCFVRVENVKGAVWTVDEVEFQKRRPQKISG
Test: PD-seq (MBP pull-down with sequencing); 20 mM Tris-HCl pH 7.5, 100 mM NaCl, 1.5 mM MgCl2, 0.4 uM protein, 0.1 uM dsDNA library, 30 min, room temperature, amylose pull-down; high values mean tight binding
Conditions: protein: recombinant; tags: His6-MBP; chain copies: 2; dsDNA, one strand shown
Procedure, shortened: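 Binding is reads-per-million enrichment of pull-down over input, with replicates pooled. It comes from 30 min room-temperature incubation in Tris pH 7.5 buffer with NaCl and MgCl2 of 0.4 µM His6-MBP-tagged, N-terminally truncated mouse FoxP3 or FoxP1 fragment from E. coli with 0.1 µM Klenow-filled degenerate double-stranded DNA library, followed by amylose resin capture, three washes and Illumina sequencing of the released DNA.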

Question: Which binding signal does the source give for “GATGATTGTTCTCCCAGCTGATGAATTTTGGGTGTCGAGTAAACAAATTTTCCTAATCTTTCTGTTCAAGCGCCATCTAC” here?
Answer: Its binding signal is 0.855 RPM ratio (pull-down/input).

Question: How did the binding signal turn out when “GATGATTGTTCTCCCAGCTGATGAATTTAAGGACTCGAGTAAACAAATTTTCCTAATCTTTCTGTTCAAGCGCCATCTAC” was run?
Answer: The binding signal was 0.845 RPM ratio (pull-down/input).

Question: For “GATGATTGTTCTCCCAGCTGATGAATTCAAGTGTTCGAGTAAACAAATTTTCCTAATCTTTCTGTTCAAGCGCCATCTAC”, which binding signal is on record?
Answer: Its binding signal is 0.981 RPM ratio (pull-down/input).

Question: How did the binding signal turn out when “GATGATTGTTCTCCCAGCTGATGAATTCTAAGAATCGAGTAAACAAATTTTCCTAATCTTTCTGTTCAAGCGCCATCTAC” was run?
Answer: Its binding signal is 0.937 RPM ratio (pull-down/input).

Question: “GATGATTGTTCTCCCAGCTGATGAATTTTATTGGTCGAGTAAACAAATTTTCCTAATCTTTCTGTTCAAGCGCCATCTAC” was tested. Which binding signal did it give?
Answer: The binding signal was 1.74 RPM ratio (pull-down/input).

Question: Which binding signal does the source give for “GATGATTGTTCTCCCAGCTGATGAATTTGTTCTGTCGAGTAAACAAATTTTCCTAATCTTTCTGTTCAAGCGCCATCTAC” here?
Answer: Its binding signal is 1.07 RPM ratio (pull-down/input).

Question: How did the binding signal turn out when “GATGATTGTTCTCCCAGCTGATGAATTCCGCCGATCGAGTAAACAAATTTTCCTAATCTTTCTGTTCAAGCGCCATCTAC” was run?
Answer: The binding signal was 0.721 RPM ratio (pull-down/input).

Question: For “GATGATTGTTCTCCCAGCTGATGAATTCCTTATTTCGAGTAAACAAATTTTCCTAATCTTTCTGTTCAAGCGCCATCTAC”, which binding signal is on record?
Answer: Its binding signal is 0.97 RPM ratio (pull-down/input).

Question: With “GATGATTGTTCTCCCAGCTGATGAATTGAAGTGCTCGAGTAAACAAATTTTCCTAATCTTTCTGTTCAAGCGCCATCTAC” as the sequence, how does the binding signal read?
Answer: Its binding signal is 0.83 RPM ratio (pull-down/input).

Question: For “GATGATTGTTCTCCCAGCTGATGAATTAGCCTTGTCGAGTAAACAAATTTTCCTAATCTTTCTGTTCAAGCGCCATCTAC”, which binding signal is on record?
Answer: The binding signal was 0.856 RPM ratio (pull-down/input).

Question: How did the binding signal turn out when “GATGATTGTTCTCCCAGCTGATGAATTTGAAAGCTCGAGTAAACAAATTTTCCTAATCTTTCTGTTCAAGCGCCATCTAC” was run?
Answer: Its binding signal is 0.908 RPM ratio (pull-down/input).

Question: With “GATGATTGTTCTCCCAGCTGATGAATTCCGGGTATCGAGTAAACAAATTTTCCTAATCTTTCTGTTCAAGCGCCATCTAC” as the sequence, how does the binding signal read?
Answer: Its binding signal is 0.867 RPM ratio (pull-down/input).

Question: How did the binding signal turn out when “GATGATTGTTCTCCCAGCTGATGAATTAAAGCTTTCGAGTAAACAAATTTTCCTAATCTTTCTGTTCAAGCGCCATCTAC” was run?
Answer: The binding signal was 1.03 RPM ratio (pull-down/input).

Question: Which binding signal does the source give for “GATGATTGTTCTCCCAGCTGATGAATTAACATCATCGAGTAAACAAATTTTCCTAATCTTTCTGTTCAAGCGCCATCTAC” here?
Answer: The binding signal was 1.31 RPM ratio (pull-down/input).

Question: “GATGATTGTTCTCCCAGCTGATGAATTCGTAAGATCGAGTAAACAAATTTTCCTAATCTTTCTGTTCAAGCGCCATCTAC” was tested. Which binding signal did it give?
Answer: The binding signal was 0.903 RPM ratio (pull-down/input).

Question: How did the binding signal turn out when “GATGATTGTTCTCCCAGCTGATGAATTTGAGCCGTCGAGTAAACAAATTTTCCTAATCTTTCTGTTCAAGCGCCATCTAC” was run?
Answer: Its binding signal is 0.822 RPM ratio (pull-down/input).

Question: “GATGATTGTTCTCCCAGCTGATGAATTAACTCAATCGAGTAAACAAATTTTCCTAATCTTTCTGTTCAAGCGCCATCTAC” was tested. Which binding signal did it give?
Answer: Its binding signal is 0.866 RPM ratio (pull-down/input).

Question: For “GATGATTGTTCTCCCAGCTGATGAATTACGTTGTTCGAGTAAACAAATTTTCCTAATCTTTCTGTTCAAGCGCCATCTAC”, which binding signal is on record?
Answer: Its binding signal is 1.21 RPM ratio (pull-down/input).

Question: For “GATGATTGTTCTCCCAGCTGATGAATTCCCGAATTCGAGTAAACAAATTTTCCTAATCTTTCTGTTCAAGCGCCATCTAC”, which binding signal is on record?
Answer: The binding signal was 0.868 RPM ratio (pull-down/input).

Question: “GATGATTGTTCTCCCAGCTGATGAATTACATGGTTCGAGTAAACAAATTTTCCTAATCTTTCTGTTCAAGCGCCATCTAC” was tested. Which binding signal did it give?
Answer: Its binding signal is 1.12 RPM ratio (pull-down/input).

Question: How did the binding signal turn out when “GATGATTGTTCTCCCAGCTGATGAATTAACTATGTCGAGTAAACAAATTTTCCTAATCTTTCTGTTCAAGCGCCATCTAC” was run?
Answer: Its binding signal is 0.956 RPM ratio (pull-down/input).

Question: “GATGATTGTTCTCCCAGCTGATGAATTTAATACTTCGAGTAAACAAATTTTCCTAATCTTTCTGTTCAAGCGCCATCTAC” was tested. Which binding signal did it give?
Answer: The binding signal was 0.972 RPM ratio (pull-down/input).

Question: Which binding signal does the source give for “GATGATTGTTCTCCCAGCTGATGAATTGGATAGTTCGAGTAAACAAATTTTCCTAATCTTTCTGTTCAAGCGCCATCTAC” here?
Answer: The binding signal was 0.857 RPM ratio (pull-down/input).

Question: How did the binding signal turn out when “GATGATTGTTCTCCCAGCTGATGAATTGCTGGTCTCGAGTAAACAAATTTTCCTAATCTTTCTGTTCAAGCGCCATCTAC” was run?
Answer: The binding signal was 0.913 RPM ratio (pull-down/input).

Question: With “GATGATTGTTCTCCCAGCTGATGAATTTGTGAGTTCGAGTAAACAAATTTTCCTAATCTTTCTGTTCAAGCGCCATCTAC” as the sequence, how does the binding signal read?
Answer: Its binding signal is 1.17 RPM ratio (pull-down/input).

Question: “GATGATTGTTCTCCCAGCTGATGAATTGGGACTTTCGAGTAAACAAATTTTCCTAATCTTTCTGTTCAAGCGCCATCTAC” was tested. Which binding signal did it give?
Answer: Its binding signal is 0.838 RPM ratio (pull-down/input).

Question: For “GATGATTGTTCTCCCAGCTGATGAATTAAAATTCTCGAGTAAACAAATTTTCCTAATCTTTCTGTTCAAGCGCCATCTAC”, which binding signal is on record?
Answer: The binding signal was 0.809 RPM ratio (pull-down/input).

Question: With “GATGATTGTTCTCCCAGCTGATGAATTTCTTTTGTCGAGTAAACAAATTTTCCTAATCTTTCTGTTCAAGCGCCATCTAC” as the sequence, how does the binding signal read?
Answer: The binding signal was 0.952 RPM ratio (pull-down/input).

Question: For “GATGATTGTTCTCCCAGCTGATGAATTAGGCACATCGAGTAAACAAATTTTCCTAATCTTTCTGTTCAAGCGCCATCTAC”, which binding signal is on record?
Answer: Its binding signal is 1.05 RPM ratio (pull-down/input).

Question: “GATGATTGTTCTCCCAGCTGATGAATTTAAAAGATCGAGTAAACAAATTTTCCTAATCTTTCTGTTCAAGCGCCATCTAC” was tested. Which binding signal did it give?
Answer: Its binding signal is 0.894 RPM ratio (pull-down/input).

Question: How did the binding signal turn out when “GATGATTGTTCTCCCAGCTGATGAATTGCTTGATTCGAGTAAACAAATTTTCCTAATCTTTCTGTTCAAGCGCCATCTAC” was run?
Answer: Its binding signal is 1.05 RPM ratio (pull-down/input).

Question: “GATGATTGTTCTCCCAGCTGATGAATTACTCCCTTCGAGTAAACAAATTTTCCTAATCTTTCTGTTCAAGCGCCATCTAC” was tested. Which binding signal did it give?
Answer: The binding signal was 1.01 RPM ratio (pull-down/input).
